Reference: PubChem BioAssay AID1476 (National Center for Advancing Translational Sciences (NCATS), 2009)
Values joined by “and” are separate entries in the source; they are usually repeats but may differ in a detail not shown here. Identical values can stand only once. In all, about 200,000 compounds went through this assay and about 4,500 (2.2%) were called active. Inconclusive means that the source gave no clear call. Such entries were picked first, then a sample of the others. Calls come from the whole dose curve; as a rule, active = well fitted inhibition curve with a large enough effect; inconclusive = small, poorly fitted or top-dose-only effect, or effect the other way; inactive = flat fitted curve, though single readings scatter. A potency beside an inconclusive call is a rough fit, not a confirmed value.

molecular target: Cruzipain (Trypanosoma cruzi) (UniProt P25779); assay: qHTS Assay for Promiscuous and Specific Inhibitors of Cruzain (without detergent); conditions: purified cruzain, Z-FR-AMC fluorescence, no detergent; note: nearly all actives have a fitted effect of over 40% in size;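 for max response, negative = inhibition: plate controls were enzyme without inhibitor for no effect and buffer without enzyme for full effect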
Outline: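 Purified cruzain at 1.5 nM, pre-incubated 15 min with compound at room temperature in 100 mM sodium acetate pH 5.5, 5 mM DTT, 0.00005% Triton X-100. Reaction started with 2 uM Z-FR-AMC; AMC fluorescence increase over 60 s gives rate.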
Potency is the fitted concentration of half-maximal effect; tags give direction and shape of the fitted curve.

UniProt P25779, sequence (P25779 whole entry, looked up): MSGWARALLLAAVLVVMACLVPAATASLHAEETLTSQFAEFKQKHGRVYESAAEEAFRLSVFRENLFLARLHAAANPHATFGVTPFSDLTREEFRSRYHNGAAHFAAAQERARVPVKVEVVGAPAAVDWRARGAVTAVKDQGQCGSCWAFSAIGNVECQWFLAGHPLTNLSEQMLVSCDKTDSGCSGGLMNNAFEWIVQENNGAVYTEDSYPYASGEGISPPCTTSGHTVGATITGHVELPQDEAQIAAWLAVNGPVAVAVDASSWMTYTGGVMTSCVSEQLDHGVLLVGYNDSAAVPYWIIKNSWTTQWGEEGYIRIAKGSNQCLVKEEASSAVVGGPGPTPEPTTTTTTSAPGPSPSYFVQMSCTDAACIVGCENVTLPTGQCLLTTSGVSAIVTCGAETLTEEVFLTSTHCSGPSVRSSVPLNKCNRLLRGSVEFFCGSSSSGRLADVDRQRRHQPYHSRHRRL

**Q.** `COc1ccc(N(CC(=O)N2CCc3ccccc3C2)S(=O)(=O)c2ccc(C)cc2)cc1Cl` was tested. Which max response, negative = inhibition did it give?
**A.** inactive: -9.38%

**Q.** Which Potency does the source give for `Cc1ccc(NS(=O)(=O)c2cccc(C(=O)N/N=C/c3c(C)nn(-c4ccccc4)c3N3CCCC3)c2)c(C)c1` here?
**A.** active: 31.6 µM

**Q.** For `COc1ccc(CNC(=O)Cn2c(=O)c3cccn3c3ccccc32)cc1`, which Potency is on record?
**A.** active: 31.6 µM

**Q.** For `O=C(Oc1cccc(NC(=O)c2cccs2)c1)c1cccc(S(=O)(=O)N2CCCC2)c1`, which Potency is on record?
**A.** inconclusive: 39.8 µM [inhibitor, single point]

**Q.** `N#CC1=C2SCN(C3CCCCC3)CN2C(=O)CC1c1ccc(Br)cc1` (configuration not stated) was tested. Which max response, negative = inhibition did it give?
**A.** inactive: 16.8%

**Q.** Which Potency does the source give for `Cc1ccc(-c2nc3ccccc3o2)cc1NC(=S)NC(=O)c1cccs1` here?
**A.** inconclusive: 39.8 µM [inhibitor, single point]

**Q.** Which Potency does the source give for `CCOc1cc(C#N)c(NC(=O)c2ccc(OC)c(S(=O)(=O)N3CCN(c4ccccc4)CC3)c2)cc1OCC` here?
**A.** inconclusive: 20 µM [activator, partial curve]

**Q.** Which Potency does the source give for `N#Cc1nc(N)nc(N(c2ccccc2)c2ccccc2)n1` here?
**A.** active: 1.58 µM

**Q.** Which max response, negative = inhibition does the source give for `CC(C)N(Cc1ccccc1)S(=O)(=O)c1n[nH]c(C(C)(C)C)n1` here?
**A.** inactive: 3.5%

**Q.** How did the max response, negative = inhibition turn out when `COc1ccc(C(=O)N2CCC3(CC2)CN(c2ncccn2)C3)cc1` was run?
**A.** inactive: -0.0238%

**Q.** With `Cc1ccc(S(=O)(=O)N2CCN(C(=O)c3nn(C(C)C)c(=O)c4ccccc34)CC2)cc1C` as the compound, how does the Potency read?
**A.** inconclusive: 25.1 µM [activator, single point]

**Q.** How did the Potency turn out when `O=C(N/N=C\c1ccc(-c2ccccc2[N+](=O)[O-])o1)C1COc2cc3ccccc3cc2O1` (configuration not stated) was run?
**A.** active: 7.94 µM

**Q.** Which max response, negative = inhibition does the source give for `CCCCC/C=C\C/C=C\CCCCCCCC(=O)NCCc1ccc(O)c(O)c1` here?
**A.** inactive: -3.58%

**Q.** For `CCCOc1ccc(C(=O)Nc2nonc2-c2ccc(OCC)cc2)cc1`, which max response, negative = inhibition is on record?
**A.** inactive: 2.12%

**Q.** For `CN(C)c1nc(OCCOC(=O)Nc2ccc(Cl)cc2Cl)nc(N(C)C)n1`, which Potency is on record?
**A.** inconclusive: 39.8 µM [activator, single point]

**Q.** `Cc1ccccc1NS(=O)(=O)c1cc(C(=O)NCCC2=CCCCC2)ccc1Cl` was tested. Which max response, negative = inhibition did it give?
**A.** inactive: -0.688%

**Q.** For `c1ccc(-c2nc(-c3cccc4ccccc34)c(NC3CCCCC3)o2)cc1`, which Potency is on record?
**A.** inconclusive: 15.8 µM [inhibitor, partial curve, poor fit]

**Q.** `Cc1cc(C)cc(NS(=O)(=O)c2ccc(NC(=S)NC(=O)c3ccc(Br)o3)cc2)c1` was tested. Which Potency did it give?
**A.** inconclusive: 39.8 µM [inhibitor, single point]

**Q.** How did the Potency turn out when `COc1ccccc1OCC(=O)N(Cc1nc(-c2ccccc2)no1)C1CCCCC1` was run?
**A.** inconclusive: 39.8 µM [activator, single point]

**Q.** Which max response, negative = inhibition does the source give for `N=C(N)SCCCN` here?
**A.** inactive: -5.02%

**Q.** With `Cc1cc(C)cc(NC(=O)CSc2nc3c([nH]c4ccccc43)c(=O)n2-c2ccc(F)cc2)c1` as the compound, how does the Potency read?
**A.** inconclusive: 3.16 µM [inhibitor, partial curve]

**Q.** `Cc1ccc(C)c(CN2C(=O)c3ccccc3S(=O)(=O)c3ccc(C(=O)Nc4cc(F)ccc4F)cc32)c1` was tested. Which Potency did it give?
**A.** active: 15.8 µM

**Q.** With `COCc1c(C(=O)N2CCN(c3ccc(C(F)(F)F)cn3)CC2)oc2ccccc12` as the compound, how does the Potency read?
**A.** inconclusive: 39.8 µM [activator, single point]

**Q.** How did the Potency turn out when `C#CCOCCOCCOCCNc1nc(N2CCN(C(=O)[C@H](C(C)C)n3cc(CCO)nn3)CC2)nc(N2CCN(C(=O)[C@H](CCCCN)n3cc(CCCC)nn3)CC2)n1` was run?
**A.** inconclusive: 25.1 µM [activator, single point]

**Q.** How did the max response, negative = inhibition turn out when `O=C(Nc1ccc(C(=O)N2CCCCC2)cc1)c1nsc2ccccc12` was run?
**A.** inactive: -5.77%

**Q.** How did the max response, negative = inhibition turn out when `CCN(CC)S(=O)(=O)c1ccc2c(c1)nc(CN(C)C(=O)Nc1ccc(F)cc1)n2C` was run?
**A.** inactive: 3.92%

**Q.** Which Potency does the source give for `CCOC(=O)N1CCN(C(=O)c2ccc3c(=O)n(CCC4=CCCCC4)c(=S)[nH]c3c2)CC1` here?
**A.** inconclusive: 25.1 µM [activator, partial curve]

**Q.** For `O=[N+]([O-])c1ccc(Nc2nc(N/N=C/c3cccc(F)c3)nc(N3CCCC3)n2)cc1`, which Potency is on record?
**A.** active: 15.8 µM

**Q.** For `CCOc1ccc(NC(=O)Nc2nnc(N3CCCCC3C)s2)cc1` (configuration not stated), which Potency is on record?
**A.** inconclusive: 20 µM [activator, partial curve]

**Q.** How did the max response, negative = inhibition turn out when `Cc1ccc(NC(=O)Nc2nnc(SCC(=O)N(C(C)C)C(C)C)s2)cc1` was run?
**A.** inactive: -6.14%

**Q.** For `CCCCOC(=O)c1ccc(NC(=O)CSC2=Nc3ccccc3C3CC=NN23)cc1` (configuration not stated), which Potency is on record?
**A.** inconclusive: 31.6 µM [inhibitor, single point]

**Q.** For `Cc1noc(NS(=O)(=O)c2ccc(NC(=O)CSc3nc4c(cc3C#N)CCCC4)cc2)c1C`, which Potency is on record?
**A.** inconclusive: 39.8 µM [activator, single point]

**Q.** `Cc1ccc(C(c2nnnn2CS(=O)(=O)c2ccc(C)cc2)N2CCC(C(N)=O)CC2)cc1` (configuration not stated) was tested. Which Potency did it give?
**A.** inconclusive: 31.6 µM [activator, single point]

**Q.** Which Potency does the source give for `c1csc(-c2nc3nc4ccccc4nc3n2Cc2ccc3c(c2)OCO3)c1` here?
**A.** inconclusive: 39.8 µM [inhibitor, single point]

**Q.** Which Potency does the source give for `O=C(Nc1ccc2c(c1)OCO2)[C@@H]1[C@@H]2C(=O)N(C3CCCCC3)C(=O)[C@@H]2C2c3ccccc3C=CN21` (some centres not stated) here?
**A.** active: 20 µM

**Q.** Which Potency does the source give for `CCN(CC)c1ccc(C(=O)N2CCc3c([nH]c4ccccc34)C2c2ccc(F)cc2)cc1` (configuration not stated) here?
**A.** active: 15.8 µM

**Q.** For `Cc1cc2cc(CNC(=O)c3cccc([N+](=O)[O-])c3)ccc2n1C`, which Potency is on record?
**A.** inconclusive: 31.6 µM [inhibitor, single point]

**Q.** For `CCOCCCn1c(SCC(=O)Nc2ccccc2CC)nc2ccccc2c1=O`, which max response, negative = inhibition is on record?
**A.** inactive: -15.7%

**Q.** `Cc1cc(C(=O)OCCN2C(=O)c3ccccc3C2=O)c2ccccc2n1` was tested. Which Potency did it give?
**A.** inconclusive: 31.6 µM [activator, single point]

**Q.** For `COc1ccc(OC)c(NC(=O)c2ccc3nc(-c4ccccc4)c(-c4ccccc4)nc3c2)c1`, which Potency is on record?
**A.** inconclusive: 39.8 µM [inhibitor, single point]

**Q.** Which Potency does the source give for `COc1cc(NC(=O)C/C(C)=N/NC(=O)Cc2ccc(Cl)cc2)c(OC)cc1Cl` here?
**A.** inconclusive: 39.8 µM [activator, single point]

**Q.** Which Potency does the source give for `O=C(Nc1ccc(O)c2c(=O)cc(-c3ccccc3Cl)oc12)c1ccccc1Cl` here?
**A.** inconclusive: 39.8 µM [inhibitor, single point] and inconclusive: 44.7 µM [inhibitor, single point]

**Q.** Which Potency does the source give for `CCOC(=O)N1CCC(N2C(=O)c3ccccc3C2Nc2ccc(Cl)cn2)CC1` (configuration not stated) here?
**A.** inconclusive: 31.6 µM [activator, single point]

**Q.** For `COc1ccc(C(=O)NCCSc2c[nH]c3ccccc23)cc1OC`, which max response, negative = inhibition is on record?
**A.** inactive: -8.53%

**Q.** `CCn1c(COc2cccc(OC)c2)nnc1SCC(=O)Nc1cc(OC)ccc1OC` was tested. Which Potency did it give?
**A.** inconclusive: 31.6 µM [activator, single point]

**Q.** `CCCCCc1ccc(-c2ccc(C(=O)O)cc2)nc1` was tested. Which Potency did it give?
**A.** inconclusive: 25.1 µM [inhibitor, single point]

**Q.** For `COC(=O)C1=C(C)NC(C)=C(C(=O)OCCSc2ccccc2)[C@@H]1C`, which Potency is on record?
**A.** inconclusive: 39.8 µM [activator, single point]

**Q.** For `CCOC(=O)N1CCN(C(=O)c2cc3c(ccc4ccccc43)oc2=O)CC1`, which max response, negative = inhibition is on record?
**A.** inactive: -18.3%

**Q.** How did the Potency turn out when `Cc1ccc(CS/C(Nc2ccccc2C)=C(\C#N)C(=O)NCc2ccco2)c(C)c1` was run?
**A.** inconclusive: 31.6 µM [inhibitor, single point]

**Q.** Which max response, negative = inhibition does the source give for `Cc1ccc(N2CC(NC(=O)c3ccc(S(=O)(=O)N(C)C)cc3)CC2=O)cc1C` (configuration not stated) here?
**A.** inactive: 15%

**Q.** With `COC(=O)c1sccc1S(=O)(=O)N(CC(=O)Nc1cc(C)ccc1C)c1ccc(C)c(C)c1` as the compound, how does the max response, negative = inhibition read?
**A.** inactive: -14.2%

**Q.** How did the Potency turn out when `Cc1cc(Cl)ccc1OCCCC(=O)N1CCN(C(=O)c2ccco2)CC1` was run?
**A.** inconclusive: 39.8 µM [activator, single point]

**Q.** How did the Potency turn out when `COc1ccccc1CNC(=O)CSc1nc(-c2ccc(OC)c(OC)c2)cc(C(F)(F)F)n1` was run?
**A.** inconclusive: 25.1 µM [activator, partial curve]

**Q.** Which Potency does the source give for `COc1ccc2[nH]c(=O)c(CN(C3CCCCC3)C(c3nnnn3Cc3ccco3)C(C)C)cc2c1` (configuration not stated) here?
**A.** inconclusive: 25.1 µM [activator, single point]

**Q.** How did the Potency turn out when `CCOCCc1nnc(NC(=O)C(=O)c2cc(C)n(-c3ccc(C)c(C)c3)c2C)s1` was run?
**A.** inconclusive: 39.8 µM [activator, single point]

**Q.** For `O=C(Cn1cnc2nc3c(cc2c1=O)CCCC3)Nc1ccc(F)cc1Cl`, which max response, negative = inhibition is on record?
**A.** inactive: -10.6%

**Q.** Which Potency does the source give for `Cc1ccc(S(=O)(=O)NCC(=O)OCC(=O)N2N=C(c3ccc(Cl)cc3)CC2c2ccco2)cc1C` (configuration not stated) here?
**A.** inconclusive: 39.8 µM [inhibitor, single point]

**Q.** For `CCn1c(SCC(=O)c2ccc(NS(=O)(=O)c3ccccc3)cc2)nnc1-c1cccs1`, which Potency is on record?
**A.** inconclusive: 39.8 µM [inhibitor, single point]

**Q.** With `CCOC(=O)c1ccc(NC(=O)C2=C(C)Nc3nc(CCCO)nn3C2c2cccc(C)c2)cc1` (configuration not stated) as the compound, how does the Potency read?
**A.** inconclusive: 31.6 µM [activator, single point]

**Q.** How did the Potency turn out when `CCOC(=O)C1=C(C)NC(c2ccccc2)=C(C(=O)OCc2ccc([N+](=O)[O-])cc2)[C@@H]1C#Cc1ccccc1` was run?
**A.** inconclusive: 7.94 µM [inhibitor, full curve, poor fit]

**Q.** For `CC[C@H](C)C(=O)O[C@@H]1C[C@H](C)C=C2C=C[C@H](C)[C@@H](CC[C@H]3C[C@@H](O)CC(=O)O3)[C@H]21`, which Potency is on record?
**A.** inconclusive: 15.8 µM [activator, single point]

**Q.** How did the Potency turn out when `COc1ccc(OC)c(NC(=O)c2cn(C)c(=O)c3cc(OC)c(OC)cc23)c1` was run?
**A.** inconclusive: 39.8 µM [activator, single point]
